The values below come from publication PMC9574860, “Chemical Toolkit for PARK7: Potent, Selective, and High-Throughput” (Journal of Medicinal Chemistry, 2022).

Hit rate of the full screen: of about 7,900 compounds, about 400 (5.1%) showed an effect of 50% or more. Some of the results follow.

Chain of Parkinson's disease protein 7 (PARK7/DJ1) (Q99497 whole entry, looked up, the tested form may be a part): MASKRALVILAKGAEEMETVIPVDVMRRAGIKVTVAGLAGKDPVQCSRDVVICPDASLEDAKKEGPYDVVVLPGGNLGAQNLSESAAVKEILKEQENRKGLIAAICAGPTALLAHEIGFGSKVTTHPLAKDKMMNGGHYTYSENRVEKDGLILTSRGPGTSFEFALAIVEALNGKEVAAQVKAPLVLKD

The target in this assay is Parkinson's disease protein 7 (PARK7/DJ1) (human, UniProt Q99497). In words: primary screen, percent inhibition; read as competition with a fluorescent probe by fluorescence polarization; higher = more effect of the substance. The note with it: 100 µM. The method in brief:
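Covalent fragments at 100 μM final were incubated 2 h with 0.2 μM PARK7, then 20 nM probe JYQ-107 added for a further 2 h. Fluorescence polarization read at 480/520 nm; relative FP loss versus reference controls gave remaining enzyme activity.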
In the case of `CCOc1ccc(C)cc1S(=O)(=O)n1cc(C)nc1CC`, the Inhibition % was determined as 5.56%.

Regarding `C=CC(=O)N1CCCC1c1ccccc1C` (centres unmarked), the Inhibition % came to 6.94%.

As to `CCC(C)c1ccc(C(=O)Cn2cnc(C#N)n2)cc1` (centres unmarked), the Inhibition % amounted to 1.54%.

Regarding `C=CC(=O)N[C@@H]1CCC(=O)N[C@H]1c1cnn(CC)c1`, the Inhibition % is 12.3%.

As to `O=C(CCl)Nc1ccc([N+](=O)[O-])cc1[N+](=O)[O-]`, the Inhibition % is recorded as 21.1%.

`CC(C)NC(=O)C(C#N)=Cc1cccnc1`: the Inhibition % amounted to 7.19%.

Consider `O=c1oc2ccccc2n1CCS(=O)(=O)F`, for which the Inhibition % amounted to 13.1%.

Regarding `C=CC(=O)N1CCN(c2cccc(C)n2)CC1C` (centres unmarked), the Inhibition % is given as 12%.

Consider `CSc1ccccc1NC(=O)CN(C)C(=O)CCl`, for which the Inhibition % turned out to be 34.6%.

On to `O=C(CCl)NNC(=O)C1CC1`, for which the Inhibition % is reported as 1.1%.

Take `O=C1CCC(=O)N1CCC(=O)N1CCCC2CCCCC21` (centres unmarked): the Inhibition % was determined as 7.62%.

`COC(=O)C1CCN(c2ccnc(C#N)c2)CC1`: the Inhibition % amounted to 6.7%.

Take `O=C(O)CC1OB(O)c2ccccc21` (centres unmarked): the Inhibition % is given as 0.686%.

Turning to `Cc1ccc(B2OC(C)(C)C(C)(C)O2)cc1`, the Inhibition % is recorded as 2.94%.

On to `CC(C)CC(=O)NNS(=O)(=O)c1ccc(S(=O)(=O)F)cc1`, for which the Inhibition % worked out at 30.6%.

`Nn1c(SC2CCOC2=O)nnc1-c1cccs1` (centres unmarked): the Inhibition % is on record as 16.5%.

For `C=CCNC(=O)C(C#N)=Cc1cc(F)ccc1F`, the Inhibition % is 6.92%.

On to `CC(=O)NCc1ccc(S(=O)(=O)NC(=O)CCl)cc1`, for which the Inhibition % came out at 3.06%.

With `CC(C)CC1C(=O)NCCN1C(=O)c1cnc(C#N)s1` (centres unmarked), the Inhibition % is -2.05%.

For `O=C1CC(CC(=O)N2CC(C3CCCCC3)C2)CO1` (centres unmarked), the Inhibition % was determined as 10.3%.

With `C=CC(=O)NC1CCOC(C)C1` (centres unmarked), the Inhibition % is 4.59%.

Turning to `COc1cccc(C2CCCN2C(=O)n2ccnc2)c1` (centres unmarked), the Inhibition % is on record as 0.87%.

For the molecule `Cc1cccc(C#N)c1SC(=O)N(C)C`, the Inhibition % stood at 8.13%.

As for `Cc1ccc(N(C(=O)CCl)C2C=CS(=O)(=O)C2)cc1` (centres unmarked), the Inhibition % was 8.7%.

Turning to `CN(Cc1ccc(-c2ccc(Cl)cc2)o1)C(=O)CCl`, the Inhibition % is 79.2%.

For the molecule `C=CC(=O)NCC(=O)N1CCCCC1`, the Inhibition % came out at 5.67%.

Turning to `N#Cc1cncc(NCC2CC(c3ccccc3)C2)n1` (centres unmarked), the Inhibition % came out at 3.91%.

Regarding `Cc1ncncc1B1OC(C)(C)C(C)(C)O1`, the Inhibition % amounted to 9.27%.

With `CNC1CCN(C(=O)C=Cc2c(C)nn(C)c2Cl)CC1`, the Inhibition % is given as 4.77%.

As for `CN(Cc1ccsc1)C(=O)Cn1cnc(C#N)n1`, the Inhibition % came to 5.08%.

As to `O=S(=O)(F)CCn1cnc2ccccc21`, the Inhibition % turned out to be 11.8%.

For the molecule `CC(=O)N1CCc2cc(NC(=O)CCl)ccc21`, the Inhibition % is listed as 3.54%.

Regarding `Cc1nc2sccn2c(=O)c1CCCl`, the Inhibition % came out at 3.24%.

For the molecule `O=C(CCl)NNC(=O)c1cccc(Cl)c1`, the Inhibition % is reported as 13.8%.

Turning to `C=CC(=O)N1CCC(F)(c2ccccc2)CC1`, the Inhibition % was determined as 5.18%.

On to `COc1c(S(=O)(=O)n2ccnc2)ccc(Cl)c1Cl`, for which the Inhibition % is listed as 3.28%.

As for `CN(C)C=CC(=O)c1cc2ccccc2o1`, the Inhibition % is recorded as 0.589%.

For `Cc1cccc(CC(=O)Nc2nc3n(c2C#N)CCS3)c1`, the Inhibition % was 2.19%.

Consider `COc1cc(C)c(C(C)NC(=O)CCl)cc1OC` (centres unmarked), for which the Inhibition % is reported as 3.84%.

Regarding `C=CC(=O)NC1CCN(C)C(=O)C1` (centres unmarked), the Inhibition % was determined as 3.98%.

As for `O=C(CCl)Nc1nc(-c2ccc(F)c(F)c2)cs1`, the Inhibition % is recorded as 2.41%.

`N#Cc1ccc(NC2CCCC2CO)cn1` (centres unmarked): the Inhibition % is reported as 7.16%.

Turning to `CCNC(=O)CN(C#N)c1ccc(F)cc1`, the Inhibition % was 4.15%.

As to `Cc1c(C=CC(=O)c2cccc(O)c2)cc(C#N)n1C`, the Inhibition % amounted to 8.99%.

With `CCC(C)C(C)Nc1nccnc1C#N` (centres unmarked), the Inhibition % amounted to 17.8%.

As for `OB(O)c1ccccc1OC1CCCCC1`, the Inhibition % worked out at 10%.

For the molecule `COC1(C)CN(c2nc(C#N)c(Cl)s2)C1`, the Inhibition % was found to be 9.88%.

Consider `C=CC(=O)N(C)C1CCC(SC)C1` (centres unmarked), for which the Inhibition % is reported as 5.07%.

Take `CN(C)c1ncc(B2OC(C)(C)C(C)(C)O2)cn1`: the Inhibition % is on record as 2.49%.

In the case of `CN(C(=O)Nc1cccc(C2OCCO2)c1)C1CCOC1` (centres unmarked), the Inhibition % is on record as 6.22%.

Take `CC1CN(C(=O)c2c[nH]c(C#N)c2)C1`: the Inhibition % was 12.5%.

For the molecule `CCOc1cc(C)c(Cl)cc1S(=O)(=O)n1ccc(C)n1`, the Inhibition % is 10.4%.

With `COc1ccc(C(C)C)cc1S(=O)(=O)n1ccnc1C`, the Inhibition % was 0.397%.

For `C=CC(=O)Nc1ccc(OC)c(OC)c1`, the Inhibition % was found to be 22.9%.

As to `CC1Cc2ccccc2N1C(=O)CC1C=CS(=O)(=O)C1` (centres unmarked), the Inhibition % is 7.7%.

Turning to `C=CC(=O)N(C)Cc1cnc(N(C)C)nc1`, the Inhibition % is on record as 5.02%.

Consider `N#Cc1cnn(Cc2ccc(S(=O)(=O)F)cc2)c1`, for which the Inhibition % is 7.21%.

For the molecule `N#Cc1ccc(NC(=O)CN2C(=O)CCC2=O)cc1`, the Inhibition % is given as 6.11%.

For `C[C@@H](O)CNC(=O)CCn1c(S)nc2ccccc2c1=O`, the Inhibition % is recorded as 3.61%.

`Cc1cc(C)n(S(=O)(=O)c2ccc(Cl)cc2)n1`: the Inhibition % turned out to be 2.13%.

As for `O=C(O)[C@H]1CCCN1C(=O)C=Cc1ccccc1Cl`, the Inhibition % is 4.49%.

For the molecule `Cc1[nH]ncc1C(=O)N1CCC(C2NC(=O)C2(C)C)CC1` (centres unmarked), the Inhibition % stood at 3.69%.

As for `C=CC(=O)N1CCCC(N(C)S(C)(=O)=O)C1` (centres unmarked), the Inhibition % was determined as 9.78%.

On to `O=C(CCl)N(C1CCCC1)C1CC1`, for which the Inhibition % is recorded as 51.2%.

On to `C=CC(=O)N1C[C@H](OC)[C@H](OC)C1`, for which the Inhibition % is given as 6.32%.

Consider `COC(=O)C1OC12CCOC2` (centres unmarked), for which the Inhibition % was found to be 5.75%.

In the case of `CC1(C)OB(c2ccc(OCCN3CCCC3)cc2)OC1(C)C.Cl`, the Inhibition % amounted to 8.54%.

On to `CCn1nc(C)c(B2OC(C)(C)C(C)(C)O2)c1C`, for which the Inhibition % came to 5.39%.

Turning to `O=S1(=O)C=CCCC1`, the Inhibition % was determined as 10.4%.

`CC(C)(C)[C@H]1OCC[C@@H]1CNC(=O)c1ccc(C#N)[nH]1`: the Inhibition % stood at 7.78%.

As for `O=C(CCl)Nc1ccc([N+](=O)[O-])cc1`, the Inhibition % is on record as 32.8%.

On to `O=c1c2ccccc2nc(S)n1C1CCS(=O)(=O)C1` (centres unmarked), for which the Inhibition % worked out at 2.61%.

Turning to `CCn1nc2c(cc1=O)CN(C1CC(C)OC1=O)CC2` (centres unmarked), the Inhibition % is given as 61.4%.

In the case of `Cc1cc(B2OC(C)(C)C(C)(C)O2)n(C)n1`, the Inhibition % is listed as 18.2%.

For `C=CC(=O)N1CCCC1c1cccc2c1OCCO2` (centres unmarked), the Inhibition % is listed as 4.1%.

For `C=CC(=O)N1CCC(CC)C1C` (centres unmarked), the Inhibition % turned out to be 8.25%.

With `Br.N#CC(=Cc1ccc(O)cc1)c1nnc2n1CCCCC2`, the Inhibition % is given as 9.92%.
